Test results: patent US8735349B2, “Method for improving glucose tolerance in a diabetes type 2 patient of younger than 50 years and having postprandial plasma glucose concentration of at least 14 mmol/L” (priority 2011, dated 2014)
Read-outs that look alike come from different tables or passages of the source.

What was measured:
[1] = tested on: obese type 2 diabetic patients younger than 50 and not adequately controlled with metformin; assay: Example 2: patient disposition / premature treatment discontinuation; type: in vivo, human
[2] = tested on: obese type 2 diabetic patients younger than 50 and not adequately controlled with metformin; assay: Example 2: change in fasting plasma glucose (FPG); conditions: mITT
[3] = tested on: obese type 2 diabetic patients younger than 50 and not adequately controlled with metformin; assay: Example 2: glucose excursion during a standardized meal challenge test; conditions: mITT
[4] = tested on: obese type 2 diabetic patients younger than 50 and not adequately controlled with metformin; assay: Example 2: beta-cell function assessed by HOMA-beta; conditions: mITT
[5] = tested on: obese type 2 diabetic patients younger than 50 and not adequately controlled with metformin; assay: Example 2: 2-hour postprandial plasma glucose after a standardized meal test; conditions: mITT
[6] = tested on: obese type 2 diabetic patients younger than 50 and not adequately controlled with metformin; conditions: double-blind treatment period, 24 weeks
[7] = tested on: obese type 2 diabetic patients younger than 50 and not adequately controlled with metformin; set-up: species or system human; conditions: in vivo
[8] = tested on: obese type 2 diabetic patients younger than 50 and not adequately controlled with metformin; assay: Example 2: composite responders (HbA1c <7% and weight loss of at least 5%) at Week 24, lixisenatide vs sitagliptin as add-on to metformin; conditions: mITT
[9] = tested on: obese type 2 diabetic patients younger than 50 and not adequately controlled with metformin; conditions: human, in vivo
[10] = tested on: obese type 2 diabetic patients younger than 50 and not adequately controlled with metformin; conditions: human, in vivo; remark: listed apart in the source
[11] = tested on: obese type 2 diabetic patients younger than 50 and not adequately controlled with metformin; set-up: species or system human; conditions: in vivo; remark: listed apart in the source
[12] = tested on: obese type 2 diabetic patients younger than 50 and not adequately controlled with metformin; assay: Example 2: insulin resistance assessed by HOMA-IR; conditions: mITT

## N[C@@H](CC(=O)N1CCn2c(nnc2C(F)(F)F)C1)Cc1cc(F)c(F)cc1F [sitagliptin]
[1]; Randomized population
  Status at last study contact: Dead: 0 n (%)
[1]; human, in vivo, 24 weeks
  Status at last study contact: Alive: 161 (100%) n (%)
  Treatment discontinuation: Adverse event: 5 (3.1%) n (%)
  treatment discontinuation due to adverse events: 3.1%
[2]; add-on to metformin
  LS mean change from baseline to Week 24 in FPG: -0.69 mmol/L
[2]
  Fasting plasma glucose Change from baseline to week 24 (LOCF) Mean (SD): -0.63 mmol/L
  Fasting plasma glucose Change from baseline to week 24 (LOCF) Median: -0.50 mmol/L
[2]; ANCOVA
  Fasting plasma glucose Change from baseline to week 24 (LOCF) LS Mean (SE): -0.69 mmol/L
[2]; Week 24 (LOCF)
  Fasting plasma glucose Week 24 (LOCF) Mean (SD): 8.33 mmol/L
  Fasting plasma glucose Week 24 (LOCF) Median: 7.83 mmol/L
[2]; baseline
  Fasting plasma glucose Baseline Mean (SD): 8.96 mmol/L
  Fasting plasma glucose Baseline Median: 8.82 mmol/L
[3]
  Glucose excursion Change from baseline to week 24 (LOCF) Mean (SD): -0.60 mmol/L
  Glucose excursion Change from baseline to week 24 (LOCF) Median: -0.83 mmol/L
[3]; ANCOVA
  Glucose excursion Change from baseline to week 24 (LOCF) LS Mean (SE): -0.42 mmol/L
[3]; Week 24 (LOCF)
  Glucose excursion Week 24 (LOCF) Mean (SD): 3.87 mmol/L
  Glucose excursion Week 24 (LOCF) Median: 3.89 mmol/L
[3]; baseline
  Glucose excursion Baseline Mean (SD): 4.47 mmol/L
  Glucose excursion Baseline Median: 4.33 mmol/L
[4]; add-on to metformin
  LS mean change from baseline to Week 24 in HOMA-β: 17.79
[4]
  HOMA-β Change from baseline to week 24 (LOCF) Mean (SD): 18.91 (59.19)
  HOMA-β Change from baseline to week 24 (LOCF) Median: 8.32
[4]; ANCOVA
  HOMA-β Change from baseline to week 24 (LOCF) LS Mean (SE): 17.79 (9.958)
[4]; Week 24 (LOCF)
  HOMA-β Week 24 (LOCF) Mean (SD): 79.24 (71.77)
  HOMA-β Week 24 (LOCF) Median: 58.37
[4]; baseline
  HOMA-β Baseline Mean (SD): 60.33 (48.79)
  HOMA-β Baseline Median: 47.65
[5]
  2-hour postprandial plasma glucose Change from baseline to week 24 (LOCF) Mean (SD): -1.66 mmol/L
  2-hour postprandial plasma glucose Change from baseline to week 24 (LOCF) Median: -1.88 mmol/L
[5]; ANCOVA
  2-hour postprandial plasma glucose Change from baseline to week 24 (LOCF) LS Mean (SE): -1.44 mmol/L
[5]; Week 24 (LOCF)
  2-hour postprandial plasma glucose Week 24 (LOCF) Mean (SD): 12.15 mmol/L
  2-hour postprandial plasma glucose Week 24 (LOCF) Median: 11.88 mmol/L
[5]; baseline
  2-hour postprandial plasma glucose Baseline Mean (SD): 13.82 mmol/L
  2-hour postprandial plasma glucose Baseline Median: 14.10 mmol/L
[6]
  percentage of patients requiring rescue therapy: 6.8%
[7]; human
  Any symptomatic hypoglycemia: Number of patients with events: 3 (1.9%) n (%)
  Any symptomatic hypoglycemia: Number of patients with events per 100 patient years: 4.1 per 100 patient years
  Symptomatic hypoglycemia, Blood glucose <60 mg/dL: Number of patients with events: 1 (0.6%) n (%)
  Symptomatic hypoglycemia, Blood glucose <60 mg/dL: Number of patients with events per 100 patient years: 1.4 per 100 patient years
  Symptomatic hypoglycemia, No blood glucose reported: Number of patients with events: 2 (1.2%) n (%)
  Symptomatic hypoglycemia, No blood glucose reported: Number of patients with events per 100 patient years: 2.7 per 100 patient years
[7]; human, 24 weeks
  number of symptomatic hypoglycemia events as defined in the protocol: 3 events
  patients with symptomatic hypoglycemia as defined in the protocol: 1.9%
[7]
  symptomatic hypoglycemia events severe according to the protocol definition: None
[8]; Week 4
  Responder (HbA1c <7% and weight loss of ≧5% of baseline body weight): No: 157 (100%) n (%)
  Responder (HbA1c <7% and weight loss of ≧5% of baseline body weight): Yes: 0 n (%)
[8]; Week 8
  Responder (HbA1c <7% and weight loss of ≧5% of baseline body weight): No: 150 (98.0%) n (%)
  Responder (HbA1c <7% and weight loss of ≧5% of baseline body weight): Yes: 3 (2.0%) n (%)
[8]; Week 12
  Responder (HbA1c <7% and weight loss of ≧5% of baseline body weight): No: 144 (96.0%) n (%)
  Responder (HbA1c <7% and weight loss of ≧5% of baseline body weight): Yes: 6 (4.0%) n (%)
[8]; Week 16
  Responder (HbA1c <7% and weight loss of ≧5% of baseline body weight): No: 141 (96.6%) n (%)
  Responder (HbA1c <7% and weight loss of ≧5% of baseline body weight): Yes: 5 (3.4%) n (%)
[8]; Week 24
  Responder (HbA1c <7% and weight loss of ≧5% of baseline body weight): No: 124 (91.2%) n (%)
  Responder (HbA1c <7% and weight loss of ≧5% of baseline body weight): Yes: 12 (8.8%) n (%)
[8]; Week 24 (LOCF)
  Responder (HbA1c <7% and weight loss of ≧5% of baseline body weight): No: 149 (92.5%) n (%)
  Responder (HbA1c <7% and weight loss of ≧5% of baseline body weight): Yes: 12 (7.5%) n (%)
[9]
  Allergic reaction by ARAC: Anaphylactic reaction: 0 n (%)
  Allergic reaction by ARAC: Conjunctivitis allergic: 0 n (%)
  Allergic reaction by ARAC: Dermatitis contact: 1 (0.6%) n (%)
  Events adjudicated as an allergic reaction by ARAC: 1 (0.6%) n (%)
[9]; 24 weeks
  patients with events adjudicated as allergic reactions by ARAC: 0.6%
[9]; ip
  Allergic reaction by ARAC: Anaphylactic reaction: 0 n (%)
  Allergic reaction by ARAC: Conjunctivitis allergic: 0 n (%)
  Allergic reaction by ARAC: Dermatitis contact: 1 (0.6%) n (%)
[10]
  AE form for increased calcitonin ≧20 pg/mL: Blood calcitonin increased: 1 (0.6%) n (%)
  Patients with a specific adverse event form for increased calcitonin ≧20 pg/mL completed: Any: 1 (0.6%) n (%)
  patients with AE form for increased calcitonin ≧20 pg/mL completed: 0.6%
  patients with at least one value of calcitonin ≧20 ng/L-<50 ng/L: 0.6%
[11]; human
  Any injection site reactions: 2 (1.2%) n (%)
  Injection site erythema: 0 n (%)
  Injection site haematoma: 2 (1.2%) n (%)
  Injection site haemorrhage: 0 n (%)
  Injection site infection: 0 n (%)
  Injection site pain: 1 (0.6%) n (%)
  Injection site papule: 0 n (%)
  Injection site pruritus: 0 n (%)
  Injection site rash: 0 n (%)
  Injection site reactions: Investigator reported PTs: 2 (1.2%) n (%)
  Injection site reactions: PTs by ARAC diagnosis: 0 n (%)
  patients experiencing injection site reaction AEs: 1.2%
[11]
  injection site reactions serious or severe in intensity: None
[12]; add-on to metformin
  LS mean change from baseline to Week 24 in HOMA-IR: −0.57
[12]
  HOMA-IR Change from baseline to week 24 (LOCF) Mean (SD): −0.75 (4.13)
  HOMA-IR Change from baseline to week 24 (LOCF) Median: −0.52
[12]; ANCOVA
  HOMA-IR Change from baseline to week 24 (LOCF) LS Mean (SE): −0.57 (0.378)
[12]; Week 24 (LOCF)
  HOMA-IR Week 24 (LOCF) Mean (SD): 5.36 (4.31)
  HOMA-IR Week 24 (LOCF) Median: 4.22
[12]; baseline
  HOMA-IR Baseline Mean (SD): 6.12 (5.08)
  HOMA-IR Baseline Median: 4.90
